# Measured values from the supplement of paper PMC12217912.
# The other results are listed elsewhere or left out. The full chains were built here from the parent and the listed change. Inactive controls read about 0.05.
# B1: TEV protease; numbered along this chain (parent)
# chain: MGESLFKGPRDYNPISSSICHLTNESDGHTTSLYGIGFGPFIITNKHLFRRNNGTLVVQSLHGVFKVKDTTTLQQHLVDGRDMIIIRMPKDFPPFPQKLKFREPQREERICLVTTNFQTKSMSSMVSDTSCTFPSGDGIFWKHWIQTKDGQCGSPLVSTRDGFIVGIHSASNFTNTNNYFTSVPKNFMELLTNQEAQQWVSGWRLNADSVLWGGHKVFMVKPEEPFQPVKEATQL
# Variants of: B1
# Experiment: raw area under fraction-flipped curve 0-4 h after induction (AUC4h, not background-subtracted), DNA-recorder readout of cleavage of the substrate (dimensionless); higher = more cleavage of the substrate by the protease variant
# Conditions: temperature: 34 °C; time window: 0-4 h after rhamnose induction
# Protocol: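 In vivo DNA recorder in E. coli TOP10(DE3) ΔrhaA at 34 °C. Each TEVp single-site mutant (parent TEVp 0) is paired with a single-site variant of the 7-mer TEVs (canonical ENLYFQ|S). The substrate sits between flexible linkers in a Bxb1-sfGFP-TEVs-SsrA fusion, so cleavage stabilises Bxb1 and speeds flipping of a recombination array, read by NGS. The value is the raw area under the fraction-flipped curve over 0-4 h after rhamnose induction (AUC4h), with ≥20 reads per time point. It is not background-subtracted; inactive controls average about 0.047.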
# 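Also: Bxb1 expression induced with 0.2% (w/v) L-rhamnose at OD600 near 0.5, cultures sampled hourly, flipped fraction per protease–substrate barcode pair counted by paired-end Illumina sequencing.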
Variant,area with substrate EALYFQS,area with substrate ECLYFQS,area with substrate EELYFQS,area with substrate EGLYFQS,area with substrate EHLYFQS,area with substrate EKLYFQS,area with substrate EPLYFQS,area with substrate EQLYFQS,area with substrate ESLYFQS,area with substrate EVLYFQS,area with substrate EWLYFQS,area with substrate EYLYFQS,area with substrate EDLYFQS,area with substrate EFLYFQS,area with substrate EILYFQS,area with substrate ELLYFQS,area with substrate EMLYFQS,area with substrate ERLYFQS,area with substrate ETLYFQS
MGPSLFKGPRDYNPISSSICHLTNESDGHTTSLYGIGFGPFIITNKHLFRRNNGTLVVQSLHGVFKVKDTTTLQQHLVDGRDMIIIRMPKDFPPFPQKLKFREPQREERICLVTTNFQTKSMSSMVSDTSCTFPSGDGIFWKHWIQTKDGQCGSPLVSTRDGFIVGIHSASNFTNTNNYFTSVPKNFMELLTNQEAQQWVSGWRLNADSVLWGGHKVFMVKPEEPFQPVKEATQL [E3P],0.133,0.129,0.0913,0.0814,0.144,0.125,0.119,0.103,0.117,0.0906,0.113,0.105,–,–,–,–,–,–,–
MGGSLFKGPRDYNPISSSICHLTNESDGHTTSLYGIGFGPFIITNKHLFRRNNGTLVVQSLHGVFKVKDTTTLQQHLVDGRDMIIIRMPKDFPPFPQKLKFREPQREERICLVTTNFQTKSMSSMVSDTSCTFPSGDGIFWKHWIQTKDGQCGSPLVSTRDGFIVGIHSASNFTNTNNYFTSVPKNFMELLTNQEAQQWVSGWRLNADSVLWGGHKVFMVKPEEPFQPVKEATQL [E3G],0.0561,0.066,0.0744,–,0.0738,0.0611,–,0.0729,0.0633,0.0581,0.0642,0.0735,0.0713,0.0922,0.0648,0.0646,0.0736,0.062,–
MGEELFKGPRDYNPISSSICHLTNESDGHTTSLYGIGFGPFIITNKHLFRRNNGTLVVQSLHGVFKVKDTTTLQQHLVDGRDMIIIRMPKDFPPFPQKLKFREPQREERICLVTTNFQTKSMSSMVSDTSCTFPSGDGIFWKHWIQTKDGQCGSPLVSTRDGFIVGIHSASNFTNTNNYFTSVPKNFMELLTNQEAQQWVSGWRLNADSVLWGGHKVFMVKPEEPFQPVKEATQL [S4E],0.148,0.119,–,0.124,0.116,0.112,0.136,0.129,–,0.0726,0.124,0.115,0.136,–,0.103,0.116,–,0.126,0.134
MGEPLFKGPRDYNPISSSICHLTNESDGHTTSLYGIGFGPFIITNKHLFRRNNGTLVVQSLHGVFKVKDTTTLQQHLVDGRDMIIIRMPKDFPPFPQKLKFREPQREERICLVTTNFQTKSMSSMVSDTSCTFPSGDGIFWKHWIQTKDGQCGSPLVSTRDGFIVGIHSASNFTNTNNYFTSVPKNFMELLTNQEAQQWVSGWRLNADSVLWGGHKVFMVKPEEPFQPVKEATQL [S4P],0.105,0.108,0.156,0.0817,–,0.0681,0.0982,–,0.12,0.0937,–,0.146,0.13,0.0928,0.0773,0.0856,0.113,0.0962,0.108
MGEKLFKGPRDYNPISSSICHLTNESDGHTTSLYGIGFGPFIITNKHLFRRNNGTLVVQSLHGVFKVKDTTTLQQHLVDGRDMIIIRMPKDFPPFPQKLKFREPQREERICLVTTNFQTKSMSSMVSDTSCTFPSGDGIFWKHWIQTKDGQCGSPLVSTRDGFIVGIHSASNFTNTNNYFTSVPKNFMELLTNQEAQQWVSGWRLNADSVLWGGHKVFMVKPEEPFQPVKEATQL [S4K],0.164,0.131,0.173,–,0.148,0.104,–,0.128,0.133,0.121,0.143,0.136,0.156,0.12,0.11,0.0973,–,–,0.142
MGEVLFKGPRDYNPISSSICHLTNESDGHTTSLYGIGFGPFIITNKHLFRRNNGTLVVQSLHGVFKVKDTTTLQQHLVDGRDMIIIRMPKDFPPFPQKLKFREPQREERICLVTTNFQTKSMSSMVSDTSCTFPSGDGIFWKHWIQTKDGQCGSPLVSTRDGFIVGIHSASNFTNTNNYFTSVPKNFMELLTNQEAQQWVSGWRLNADSVLWGGHKVFMVKPEEPFQPVKEATQL [S4V],0.0463,0.131,0.172,–,–,0.151,–,0.143,0.129,0.117,0.0019,–,0.158,–,0.117,0.109,0.171,0.151,0.134
MGESQFKGPRDYNPISSSICHLTNESDGHTTSLYGIGFGPFIITNKHLFRRNNGTLVVQSLHGVFKVKDTTTLQQHLVDGRDMIIIRMPKDFPPFPQKLKFREPQREERICLVTTNFQTKSMSSMVSDTSCTFPSGDGIFWKHWIQTKDGQCGSPLVSTRDGFIVGIHSASNFTNTNNYFTSVPKNFMELLTNQEAQQWVSGWRLNADSVLWGGHKVFMVKPEEPFQPVKEATQL [L5Q],0.135,0.115,–,0.157,0.133,0.141,0.118,–,0.109,0.105,0.111,0.0953,0.165,0.122,0.105,0.089,0.133,0.121,–
MQESLFKGPRDYNPISSSICHLTNESDGHTTSLYGIGFGPFIITNKHLFRRNNGTLVVQSLHGVFKVKDTTTLQQHLVDGRDMIIIRMPKDFPPFPQKLKFREPQREERICLVTTNFQTKSMSSMVSDTSCTFPSGDGIFWKHWIQTKDGQCGSPLVSTRDGFIVGIHSASNFTNTNNYFTSVPKNFMELLTNQEAQQWVSGWRLNADSVLWGGHKVFMVKPEEPFQPVKEATQL [G2Q],0.123,0.129,0.13,0.0983,–,0.135,0.143,0.145,0.115,0.0938,0.0826,–,0.119,0.132,0.0878,0.11,–,0.0889,0.11
MGESLFAGPRDYNPISSSICHLTNESDGHTTSLYGIGFGPFIITNKHLFRRNNGTLVVQSLHGVFKVKDTTTLQQHLVDGRDMIIIRMPKDFPPFPQKLKFREPQREERICLVTTNFQTKSMSSMVSDTSCTFPSGDGIFWKHWIQTKDGQCGSPLVSTRDGFIVGIHSASNFTNTNNYFTSVPKNFMELLTNQEAQQWVSGWRLNADSVLWGGHKVFMVKPEEPFQPVKEATQL [K7A],0.155,0.103,0.112,0.0988,–,0.107,–,0.117,0.0908,0.104,–,–,–,0.154,0.112,–,0.122,–,–
